Values joined by “and” are separate entries in the source; they are usually repeats but may differ in a detail not shown here. Identical values can stand only once. Counter-ions that a name gives are not always drawn. Like-named read-outs stand apart in the source and are kept apart here.

Experiment [1] deals with influenza A virus PR/8/34 (H1N1). Format: cell-based.
Experiment [2] shares this test system. Format: cell-based. The source holds these as a separate data set.
Experiment [3] has the same test system. Conditions: for Log2 HA decrement (mean ± SD): compared to H1N1, compound at NCTC.
The mark [4] stands for this setting: Co-pen, compound at NCTC + H1N1, MDCK.
Where [5] appears, read: Co-pen, compound at NCTC + H1N1, MDCK, 48 h, MTT.
Setting [6] is: Post-pen, compound at NCTC + H1N1, MDCK.
Where [7] appears, read: Post-pen, compound at NCTC + H1N1, MDCK, 48 h, MTT.
The mark [8] stands for this setting: Pre-pen, compound at NCTC + H1N1, MDCK.
Where [9] appears, read: Pre-pen, compound at NCTC + H1N1, MDCK, 48 h, MTT.

For the compound `CC(=O)[O-].[Na+]` [Acetate, sodium acetate], the “Reduction of the infectious dose of the virus (TCID50)” value in experiment [1] came out at 1.75 logs. Further, the “Percentage of protection (mean ± SD)” value in experiment [2] (setting [4]) was 150.66 ± 3.05; in experiment [2] (setting [6]), 94.52 ± 17.04; in experiment [2] (setting [8]) it was 145.35 ± 3.95. Moreover, the “Cell viability (mean ± SD)” value was 1.11 ± 0.02 in experiment [2] (setting [5]), 0.82 ± 0.09 in experiment [2] (setting [7]) and 1.08 ± 0.02 in experiment [2] (setting [9]).
With `NC12CC3CC(CC(C3)C1)C2` [Amantadine hydrochloride, reference compound], the “Log2 HA decrement (mean ± SD)” value in experiment [3] (Co-pen (simultaneous)) is 5.50 ± 0.71 logs; in experiment [3] (Co-pen (simultaneous), listed as amantadine), 5.5 ± 0.71 logs; in experiment [3] (Post-pen), 3.00 ± 2.83 logs; in experiment [3] (Pre-pen) it was 4.00 ± 1.41 logs. The “Percentage of protection (mean ± SD)” value in experiment [2] (setting [4]) is on record as 57.70 ± 2.73; in experiment [2] (setting [6]), 35.68 ± 27.93; in experiment [2] (setting [8]), 22.08 ± 4.11. The “Cell viability (mean ± SD)” value was 0.89 ± 0.03 in experiment [2] (setting [5]), 0.54 ± 0.05 in experiment [2] (setting [7]) and 0.52 ± 0.04 in experiment [2] (setting [9]).
In the case of `O=C(O)CC(O)(CC(=O)O)C(=O)O` [Citrate, sodium citrate], the HA titer in experiment [3] was 32 and 16. Besides, in experiment [2], the “Cell viability (mean ± SD)” value was 1.34 ± 0.41 and 1.03 ± 0.04 and 0.92 ± 0.03; the “Percentage of protection (mean ± SD)” value is 193.77 ± 77.98 and 135.74 ± 7.25 and 115.40 ± 30.31.
As to `O=C1O[C@H]([C@@H](O)CO)C(O)=C1O` [Ascorbate, ascorbic acid], in experiment [1] (co-penetration, in comparison with the virus (10^6.5)), the “Reduction of the infectious dose of the virus (TCID50)” value turned out to be 6.5 logs. Moreover, the “Log2 HA decrement (mean ± SD)” value in experiment [3] (Co-pen (simultaneous)) was found to be 6.5 logs; in experiment [3] (Co-pen (simultaneous), listed as Asc), 6.50 ± 0.71 logs; in experiment [3] (Post-pen), 4.5 logs; in experiment [3] (Post-pen, listed as Asc), 4.50 ± 0.71 logs; in experiment [3] (Pre-pen) it was 6.5 logs; in experiment [3] (Pre-pen, listed as Asc), 6.50 ± 0.71 logs. For the same compound, in experiment [3] (treatment not specified (Fig. 1)), the HA decrement entry was “more than 6 logs”. In addition, the “Percentage of protection (mean ± SD)” value in experiment [2] (setting [4]) is on record as 505.12 ± 2.35; in experiment [2] (setting [6]), 642.65 ± 40.03; in experiment [2] (setting [8]), 287.06 ± 150.79. Further, the “Cell viability (mean ± SD)” value in experiment [2] (setting [5]) is recorded as 2.97 ± 0.01; in experiment [2] (setting [7]), 3.69 ± 0.21; in experiment [2] (setting [9]) it was 1.82 ± 0.79.

The record behind these values is paper PMC9125540 (Virology Journal, 2022).
